# The other results are listed elsewhere or left out.
# Key:
# Assay in all cases: glycan array binding signal (z-score within array); higher = stronger binding
# Details in all cases: glycan notation: IUPAC condensed, linker removed
# GlcNAc(b1-3)Gal(b1-4)Glc = target: GlcNAc(b1-3)Gal(b1-4)Glc
# Method in brief: (§1)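 Negative Z-scores can be read as non-binding. The Z-score is calculated within each array and then averaged across arrays of one protein sequence at different concentrations or buffers and across linkers. Arrays, 3228 in all, were curated from the Consortium for Functional Glycomics database and kept only where the protein sequence was available.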
# [1] = target: GlcNAc(b1-3)Gal(b1-4)GlcNAc
# Method in brief: as §1
# [2] = target: GlcNAc(b1-3)Gal(b1-4)GlcNAc(b1-2)Man(a1-3)[GlcNAc(b1-3)Gal(b1-4)GlcNAc(b1-2)Man(a1-6)]Man(b1-4)GlcNAc(b1-4)GlcNAc
# Method in brief: as §1
# [3] = target: GlcNAc(b1-3)Gal(b1-4)GlcNAc(b1-2)Man(a1-3)[GlcNAc(b1-3)Gal(b1-4)GlcNAc(b1-2)Man(a1-6)]Man(b1-4)GlcNAc(b1-4)[Fuc(a1-6)]GlcNAc
# Method in brief: as §1
# [4] = target: GlcNAc(b1-3)Gal(b1-4)GlcNAc(b1-2)[GlcNAc(b1-3)Gal(b1-4)GlcNAc(b1-6)]Man(a1-6)[GlcNAc(b1-3)Gal(b1-4)GlcNAc(b1-2)Man(a1-3)]Man(b1-4)GlcNAc(b1-4)GlcNAc
# Method in brief: as §1
# [5] = target: GlcNAc(b1-3)Gal(b1-4)GlcNAc(b1-3)Gal(b1-4)GlcNAc
# Method in brief: as §1
# [6] = target: GlcNAc(b1-3)Gal(b1-4)GlcNAc(b1-3)Gal(b1-4)GlcNAc(b1-2)Man(a1-3)[GlcNAc(b1-3)Gal(b1-4)GlcNAc(b1-3)Gal(b1-4)GlcNAc(b1-2)Man(a1-6)]Man(b1-4)GlcNAc(b1-4)GlcNAc
# Method in brief: as §1
# [7] = target: GlcNAc(b1-3)Gal(b1-4)GlcNAc(b1-3)Gal(b1-4)GlcNAc(b1-2)Man(a1-3)[GlcNAc(b1-3)Gal(b1-4)GlcNAc(b1-3)Gal(b1-4)GlcNAc(b1-2)Man(a1-6)]Man(b1-4)GlcNAc(b1-4)[Fuc(a1-6)]GlcNAc
# Method in brief: as §1
# [8] = target: GlcNAc(b1-3)Gal(b1-4)GlcNAc(b1-3)Gal(b1-4)GlcNAc(b1-2)[GlcNAc(b1-3)Gal(b1-4)GlcNAc(b1-3)Gal(b1-4)GlcNAc(b1-6)]Man(a1-6)[GlcNAc(b1-3)Gal(b1-4)GlcNAc(b1-3)Gal(b1-4)GlcNAc(b1-2)Man(a1-3)]Man(b1-4)GlcNAc(b1-4)[Fuc(a1-6)]GlcNAc
# Method in brief: as §1
# [9] = target: GlcNAc(b1-3)Gal(b1-4)GlcNAc(b1-3)Gal(b1-4)GlcNAc(b1-3)Gal(b1-4)GlcNAc(b1-2)Man(a1-3)[GlcNAc(b1-3)Gal(b1-4)GlcNAc(b1-3)Gal(b1-4)GlcNAc(b1-3)Gal(b1-4)GlcNAc(b1-2)Man(a1-6)]Man(b1-4)GlcNAc(b1-4)GlcNAc
# Method in brief: as §1
# [10] = target: GlcNAc(b1-3)Gal(b1-4)GlcNAc(b1-3)Gal(b1-4)GlcNAc(b1-3)Gal(b1-4)GlcNAc(b1-2)Man(a1-3)[GlcNAc(b1-3)Gal(b1-4)GlcNAc(b1-3)Gal(b1-4)GlcNAc(b1-3)Gal(b1-4)GlcNAc(b1-2)Man(a1-6)]Man(b1-4)GlcNAc(b1-4)[Fuc(a1-6)]GlcNAc
# Method in brief: as §1
# [11] = target: GlcNAc(b1-3)Gal(b1-4)GlcNAc(b1-3)Gal(b1-4)GlcNAc(b1-3)Gal(b1-4)GlcNAc(b1-2)[GlcNAc(b1-3)Gal(b1-4)GlcNAc(b1-3)Gal(b1-4)GlcNAc(b1-3)Gal(b1-4)GlcNAc(b1-6)]Man(a1-6)[GlcNAc(b1-3)Gal(b1-4)GlcNAc(b1-3)Gal(b1-4)GlcNAc(b1-3)Gal(b1-4)GlcNAc(b1-2)Man(a1-3)]Man(b1-4)GlcNAc(b1-4)[Fuc(a1-6)]GlcNAc
# Method in brief: as §1
# [12] = target: GlcNAc(b1-3)Gal(b1-4)GlcNAc(b1-3)Gal(b1-4)GlcNAc(b1-3)Gal(b1-4)GlcNAc(b1-3)Gal(b1-4)GlcNAc(b1-2)Man(a1-3)[GlcNAc(b1-3)Gal(b1-4)GlcNAc(b1-3)Gal(b1-4)GlcNAc(b1-3)Gal(b1-4)GlcNAc(b1-3)Gal(b1-4)GlcNAc(b1-2)Man(a1-6)]Man(b1-4)GlcNAc(b1-4)GlcNAc
# Method in brief: as §1
# [13] = target: GlcNAc(b1-3)Gal(b1-4)GlcNAc(b1-3)Gal(b1-4)GlcNAc(b1-3)Gal(b1-4)GlcNAc(b1-3)Gal(b1-4)GlcNAc(b1-2)Man(a1-3)[GlcNAc(b1-3)Gal(b1-4)GlcNAc(b1-3)Gal(b1-4)GlcNAc(b1-3)Gal(b1-4)GlcNAc(b1-3)Gal(b1-4)GlcNAc(b1-2)Man(a1-6)]Man(b1-4)GlcNAc(b1-4)[Fuc(a1-6)]GlcNAc
# Method in brief: as §1
# [14] = target: GlcNAc(b1-3)Gal(b1-4)GlcNAc(b1-3)Gal(b1-4)GlcNAc(b1-3)Gal(b1-4)GlcNAc(b1-3)Gal(b1-4)GlcNAc(b1-2)[GlcNAc(b1-3)Gal(b1-4)GlcNAc(b1-3)Gal(b1-4)GlcNAc(b1-3)Gal(b1-4)GlcNAc(b1-3)Gal(b1-4)GlcNAc(b1-6)]Man(a1-6)[GlcNAc(b1-3)Gal(b1-4)GlcNAc(b1-3)Gal(b1-4)GlcNAc(b1-3)Gal(b1-4)GlcNAc(b1-3)Gal(b1-4)GlcNAc(b1-2)Man(a1-3)]Man(b1-4)GlcNAc(b1-4)[Fuc(a1-6)]GlcNAc
# Method in brief: as §1
# [15] = target: GlcNAc(b1-3)Gal(b1-4)GlcNAc(b1-3)Gal(b1-4)GlcNAc(b1-3)GalNAc
# Method in brief: as §1
# [16] = target: GlcNAc(b1-3)Gal(b1-4)GlcNAc(b1-3)GalNAc
# Method in brief: as §1
# [17] = target: GlcNAc(b1-3)Gal(b1-4)GlcNAc(b1-3)[GlcNAc(b1-3)Gal(b1-4)GlcNAc(b1-3)]GalNAc
# Method in brief: as §1
# [18] = target: GlcNAc(b1-3)Gal(b1-4)GlcNAc(b1-6)[Gal(b1-3)]GalNAc
# Method in brief: as §1
# [19] = target: GlcNAc(b1-3)Gal(b1-4)GlcNAc(b1-6)[GlcNAc(b1-3)Gal(b1-3)]GalNAc
# Method in brief: as §1
# [20] = target: GlcNAc(b1-3)Gal(b1-4)GlcNAc(b1-6)[GlcNAc(b1-3)]Gal(b1-4)GlcNAc
# Method in brief: as §1
# GlcNAc(b1-3)GalNAc = target: GlcNAc(b1-3)GalNAc
# Method in brief: as §1
# GlcNAc(b1-3)Man = target: GlcNAc(b1-3)Man
# Method in brief: as §1
# [21] = target: GlcNAc(b1-3)[GlcNAc(b1-4)][GlcNAc(b1-6)]GlcNAc
# Method in brief: as §1
# [22] = target: GlcNAc(b1-3)[GlcNAc(b1-6)]Gal(b1-4)GlcNAc
# Method in brief: as §1
# [23] = target: GlcNAc(b1-3)[GlcNAc(b1-6)]GalNAc
# Method in brief: as §1
# [24] = target: GlcNAc(b1-4)Gal(b1-4)GlcNAc
# Method in brief: as §1
# GlcNAc(b1-4)GlcNAc = target: GlcNAc(b1-4)GlcNAc
# Method in brief: as §1
# [25] = target: GlcNAc(b1-4)GlcNAc(b1-4)GlcNAc
# Method in brief: as §1
# [26] = target: GlcNAc(b1-4)GlcNAc(b1-4)GlcNAc(b1-4)GlcNAc(b1-4)GlcNAc
# Method in brief: as §1
# [27] = target: GlcNAc(b1-4)GlcNAc(b1-4)GlcNAc(b1-4)GlcNAc(b1-4)GlcNAc(b1-4)GlcNAc
# Method in brief: as §1
# [28] = target: GlcNAc(b1-4)[GlcNAc(b1-6)]GalNAc
# Method in brief: as §1
# [29] = target: GlcNAc(b1-6)Gal(b1-4)GlcNAc
# Method in brief: as §1
# GlcNAc(b1-6)GalNAc = target: GlcNAc(b1-6)GalNAc
# Method in brief: as §1
# [30] = target: GlcNAc6S(b1-3)Gal(b1-4)GlcNAc
# Method in brief: as §1
# Kdn(a2-3)Gal(b1-3)GalNAc = target: Kdn(a2-3)Gal(b1-3)GalNAc
# Method in brief: as §1
# Kdn(a2-3)Gal(b1-3)GlcNAc = target: Kdn(a2-3)Gal(b1-3)GlcNAc
# Method in brief: as §1
binder,measurement,setting,value
"ECL (Erythrina cristagalli), Q6YD91 (protein) VETISFSFSEFEPGNNDLTLQGAAIITQSGVLQLTKINQNGMPAWDSTGRTLYTKPVHIWDMTTGTVASFETRFSFSIEQPYTRPLPADGLVFFMGPTKSKPAQGYGYLGVFNNSKQDNSYQTLAVEFDTFSNPWDPPQVPHIGIDVNSIRSIKTQPFQLDNGQVANVVIKYDASSKILLAVLVYPSSGAIYTIAEIVDVKQVLPEWVDVGLSGATGAQRDAAETHDVYSWSFHASLPETND",glycan array binding signal (z-score),GlcNAc(b1-3)Gal(b1-4)Glc,-0.388
same,glycan array binding signal (z-score),[1],-0.329
same,glycan array binding signal (z-score),[2],-0.29
same,glycan array binding signal (z-score),[3],0.141
same,glycan array binding signal (z-score),[4],0.514
same,glycan array binding signal (z-score),[5],-0.007
same,glycan array binding signal (z-score),[6],0.644
same,glycan array binding signal (z-score),[7],0.117
same,glycan array binding signal (z-score),[8],0.14
same,glycan array binding signal (z-score),[9],0.006
same,glycan array binding signal (z-score),[10],0.001
same,glycan array binding signal (z-score),[11],0.113
same,glycan array binding signal (z-score),[12],-0.023
same,glycan array binding signal (z-score),[13],-0.323
same,glycan array binding signal (z-score),[14],-0.342
same,glycan array binding signal (z-score),[15],-0.046
same,glycan array binding signal (z-score),[16],-0.257
same,glycan array binding signal (z-score),[17],-0.36
same,glycan array binding signal (z-score),[18],-0.235
same,glycan array binding signal (z-score),[19],-0.345
same,glycan array binding signal (z-score),[20],-0.2
same,glycan array binding signal (z-score),GlcNAc(b1-3)GalNAc,-0.196
same,glycan array binding signal (z-score),GlcNAc(b1-3)Man,-0.121
same,glycan array binding signal (z-score),[21],-0.03
same,glycan array binding signal (z-score),[22],-0.162
same,glycan array binding signal (z-score),[23],-0.163
same,glycan array binding signal (z-score),[24],-0.303
same,glycan array binding signal (z-score),GlcNAc(b1-4)GlcNAc,-0.254
same,glycan array binding signal (z-score),[25],-0.165
same,glycan array binding signal (z-score),[26],-0.232
same,glycan array binding signal (z-score),[27],-0.146
same,glycan array binding signal (z-score),[28],-0.281
same,glycan array binding signal (z-score),[29],-0.23
same,glycan array binding signal (z-score),GlcNAc(b1-6)GalNAc,-0.312
same,glycan array binding signal (z-score),[30],-0.102
same,glycan array binding signal (z-score),Kdn(a2-3)Gal(b1-3)GalNAc,-0.266
same,glycan array binding signal (z-score),Kdn(a2-3)Gal(b1-3)GlcNAc,-0.227

# Source: the supplement of paper PMC8728848
